Laboratory results: the RNAGym collection of RNA variant scans (doi:10.1093/nar/gkz1192)
The source gives no read counts; variants with many changes may rest on few reads.

B1: CPEB3 Ribozyme (parent)
chain: UAACAGGGGGCCACAGCAGAAGCGUUCACGUCGCAGCCCCUGUCAGAUUCUGGUGAAUCUGCGAAUUCUGCUGUAUAUCUC

Variants of: B1
Assay: self-cleavage, relative activity (ratio to wild type); higher = more cleavage; in vitro, sequencing
Procedure, shortened: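 For each CPEB3 ribozyme variant, relative activity is its cleaved/total read fraction divided by the unmutated ribozyme's. Barcoded error-prone PCR libraries were transcribed by T7 RNA polymerase (5 hours, 37°C) and held in DNase I for 15 min before an EDTA stop, with cleavage occurring throughout. Template-switching reverse transcription and Illumina sequencing were used to read the RNAs. A 5-read minimum applied, and results are the mean of three batches.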
In the case of UAACAGGGGGCCACAGCAGAAGCGUUCGCGCCGCAGCCCCUGUCAGAUUCUGGUGAAUCUGCGAAUUCUGCUGUAUAACUC [A28G U31C U78A], the self-cleavage is reported as 0.53. Variant UAACAGGGGGCCACAGCAGAAGCGUUCGCGGCGCAGCCCCUGUCAGAUUCUGGUGAAUCUGCGGAUUCUGCUGCAUAUCUC [A28G U31G A64G U74C] has a self-cleavage of 0.25. Work on UAACAGGGGGCCACAGCAGAAGCGUUCGCGGCGCAGCCCCUGUCAGAUUCUGGUGAAUCUGCGAAUUCUGCUGUAUCUCUC [A28G U31G A77C] yielded a self-cleavage of 0.17. Variant UAACAGGGGGCCACAGCAGAAGCGUUCGCGUCGCAGCCCCAGUCAGAUUCUGGUGAGACUGCGAAUUCUGCUGUAUAUCUC [A28G U41A A57G U58A] has a self-cleavage of 0.2. For UAACAGGGGGCCACAGCAGAAGCGUUCGCGUCGCAGCCCCAGUCAGAUUCUGGUGAGUCUGCGAAUUCUGCUGCUUAUCUC [A28G U41A A57G U74C A75U], the self-cleavage was 0.14. With UAACAGGGGGCCACAGCAGAAGCGUUCGCGUCGCAGCCCCAGUCAGAUUCUGGUGAAUCUGCGUAUUCUGCUGUAUACCUC [A28G U41A A64U U78C] the self-cleavage was 0.18. Variant UAACAGGGGGCCACAGCAGAAGCGUUCGCGUCGCAGCCCCAGUCAGAUUCUGGUGAAUCUGCGAGUUCAGCUGUAUAACUC [A28G U41A A65G U69A U78A] has a self-cleavage of 0.08. For UAACAGGGGGCCACAGCAGAAGCGUUCGCGUCGCAGCCCCAGUCAGAUUCUGGUGAAUCUGCGAAUUCUGCUGUAUGUCUC [A28G U41A A77G], the self-cleavage was 0.24. Variant UAACAGGGGGCCACAGCAGAAGCGUUCGCGUCGCAGCCCCAGUCAGAUUUUGGUGAAUCUGCGAAUUCUGCUGUAUAUCUC [A28G U41A C50U] has a self-cleavage of 0.49. Variant UAACAGGGGGCCACAGCAGAAGCGUUCGCGUCGCAGCCCCAGUCAGAUACUGGUGGAUCUGCGAACUCUGCUGUAUGUCUC [A28G U41A U49A A56G U66C A77G] has a self-cleavage of 0.07. In the case of UAACAGGGGGCCACAGCAGAAGCGUUCGCGUCGCAGCCCCAGUCAGAUUCAGGUGAAUCUGCGAAUUCUGCUGUAUAACUC [A28G U41A U51A U78A], the self-cleavage is reported as 0.23. In the case of UAACAGGGGGCCACAGCAGAAGCGUUCGCGUCGCAGCCCCAGUCAGAUUCUGGAGAAUCCGCUAAUUCUGCUGUACAUCUC [A28G U41A U54A U60C G63U U76C], the self-cleavage is reported as 0.1. For UAACAGGGGGCCACAGCAGAAGCGUUCGCGUCGCAGCCCCAGUCAGAUUCUGGCGAGUCUGCGAAUUCUGCUGUAUAUCUC [A28G U41A U54C A57G], the self-cleavage was 0.08. UAACAGGGGGCCACAGCAGAAGCGUUCGCGUCGCAGCCCCAGUCAGAUUCUGGCGAAUCUGCGAAUUAUGCCGUAUAUCUC [A28G U41A U54C C68A U72C] showed a self-cleavage of 0.09. UAACAGGGGGCCACAGCAGAAGCGUUCGCGUCGCAGCCCCAGUCAGAUUCUGGUGAAUCUGCGAAUUCUGCUGUAUACCUC [A28G U41A U78C] showed a self-cleavage of 0.25. Work on UAACAGGGGGCCACAGCAGAAGCGUUCGCGUCGCAGCCCCCGUCCGAUUCUGGUGAAUCUGCGAACUCUGCUGUAUAUCUC [A28G U41C A45C U66C] yielded a self-cleavage of 0.18. With UAACAGGGGGCCACAGCAGAAGCGUUCGCGUCGCAGCCCCCGUCUGAUUCUGGUGAAUCUGCGAAUUCUGCUGUAUAUAUC [A28G U41C A45U C79A] the self-cleavage was 0.39. Work on UAACAGGGGGCCACAGCAGAAGCGUUCGCGUCGCAGCCCCCGUCAGAUUCUGGUGAGUCUGCGAAUUCUGCUGAAUAUCUC [A28G U41C A57G U74A] yielded a self-cleavage of 0.5. For UAACAGGGGGCCACAGCAGAAGCGUUCGCGUCGCAGCCCCCGUCAGAUUCUGGUGAAUCUGCGAGUUCUGCUGUAUAUCUC [A28G U41C A65G], the self-cleavage was 0.2. Work on UAACAGGGGGCCACAGCAGAAGCGUUCGCGUCGCAGCCCCCGUCAGAUUCUGGUGAAUCUGCGAAUUCUGCUGUAUUUCUC [A28G U41C A77U] yielded a self-cleavage of 0.66. UAACAGGGGGCCACAGCAGAAGCGUUCGCGUCGCAGCCCCCGUCAGAUUCUGGUUAAUCUGCGAAUUCUGCUGUAUAUCUC [A28G U41C G55U] gave a self-cleavage of 0.65. With UAACAGGGGGCCACAGCAGAAGCGUUCGCGUCGCAGCCCCCGACAGAUUCUGGUGAAUCUGCGAAUUCUGCUGUAUAUCUC [A28G U41C U43A] the self-cleavage was 0.28. Work on UAACAGGGGGCCACAGCAGAAGCGUUCGCGUCGCAGCCCCCGCCAGACUCUGGUGAAUCUGCGAAUUCUGCAGUAUAUCUC [A28G U41C U43C U48C U72A] yielded a self-cleavage of 0.04. UAACAGGGGGCCACAGCAGAAGCGUUCGCGUCGCAGCCCCCGUCAGAAUCUGGUGAAUCUGCGAAUUCUGCUGUAUAUCUC [A28G U41C U48A] gave a self-cleavage of 0.58. Work on UAACAGGGGGCCACAGCAGAAGCGUUCGCGUCGCAGCCCCCGUCAGACUCAGGUGAAUAUGCGAAUUCUGCUGUAUAUCUC [A28G U41C U48C U51A C59A] yielded a self-cleavage of 0.14. Variant UAACAGGGGGCCACAGCAGAAGCGUUCGCGUCGCAGCCCCCGUCAGAUCCUGGUGAAUCUGCGAAUUCUGCUGUAUAUCUC [A28G U41C U49C] has a self-cleavage of 0.61. In the case of UAACAGGGGGCCACAGCAGAAGCGUUCGCGUCGCAGCCCCCGUCAGAUCCUGGUGAAUCUGCGAAUUCUGCUGUGUAUCUC [A28G U41C U49C A75G], the self-cleavage is reported as 0.17. For UAACAGGGGGCCACAGCAGAAGCGUUCGCGUCGCAGCCCCCGUCAGAUUCAGGUGAAUCUGCGAAUUCUGCUGUAUAUCUC [A28G U41C U51A], the self-cleavage was 0.69. For UAACAGGGGGCCACAGCAGAAGCGUUCGCGUCGCAGCCCCCGUCAGAUUCUGGUGAAUCAGCGAAUUCUGCUGUAUAUCUC [A28G U41C U60A], the self-cleavage was 0.25. Variant UAACAGGGGGCCACAGCAGAAGCGUUCGCGUCGCAGCCCCCGUCAGAUUCUGGUGAAUCGGCGAAUUCUGCUGUAUAUCUC [A28G U41C U60G] has a self-cleavage of 0.13. For UAACAGGGGGCCACAGCAGAAGCGUUCGCGUCGCAGCCCCCGUCAGAUUCUGGUGAAUCUGCGAAUCCUGCUGUAUAUCUC [A28G U41C U67C], the self-cleavage was 0.15. Variant UAACAGGGGGCCACAGCAGAAGCGUUCGCGUCGCAGCCCCGGUCAGAUUCUGGUGAAUCUGCUAAUUCUGCUGUAUAUCUC [A28G U41G G63U] has a self-cleavage of 0.19. With UAACAGGGGGCCACAGCAGAAGCGUUCGCGUCGCAGCCCCGGCCGGAUUCUGGUGAAUCUGCGAAUUCUGCUGUAUACCUC [A28G U41G U43C A45G U78C] the self-cleavage was 0.45. UAACAGGGGGCCACAGCAGAAGCGUUCGCGUCGCAGCCCCGGUCAGAUUCUGGCGAAUCUGCGAGUUCUGCUGUAUAUCUC [A28G U41G U54C A65G] showed a self-cleavage of 0.33.
